The record followed here is article PMC4336329 (PLoS ONE, 2015).

In all, about 310,000 compounds went through this assay and about 2,200 (0.71%) showed an effect of 50% or more. Effects have a minus sign here. The list shows a part of the results.

This assay deals with human ether-à-go-go-related gene (hERG) potassium channel (human, UniProt Q12809). The experiment in a line: primary screen, population patch clamp on CHO cells stably expressing hERG.
human ether-à-go-go-related gene (hERG) potassium channel, sequence (Q12809 whole entry, looked up): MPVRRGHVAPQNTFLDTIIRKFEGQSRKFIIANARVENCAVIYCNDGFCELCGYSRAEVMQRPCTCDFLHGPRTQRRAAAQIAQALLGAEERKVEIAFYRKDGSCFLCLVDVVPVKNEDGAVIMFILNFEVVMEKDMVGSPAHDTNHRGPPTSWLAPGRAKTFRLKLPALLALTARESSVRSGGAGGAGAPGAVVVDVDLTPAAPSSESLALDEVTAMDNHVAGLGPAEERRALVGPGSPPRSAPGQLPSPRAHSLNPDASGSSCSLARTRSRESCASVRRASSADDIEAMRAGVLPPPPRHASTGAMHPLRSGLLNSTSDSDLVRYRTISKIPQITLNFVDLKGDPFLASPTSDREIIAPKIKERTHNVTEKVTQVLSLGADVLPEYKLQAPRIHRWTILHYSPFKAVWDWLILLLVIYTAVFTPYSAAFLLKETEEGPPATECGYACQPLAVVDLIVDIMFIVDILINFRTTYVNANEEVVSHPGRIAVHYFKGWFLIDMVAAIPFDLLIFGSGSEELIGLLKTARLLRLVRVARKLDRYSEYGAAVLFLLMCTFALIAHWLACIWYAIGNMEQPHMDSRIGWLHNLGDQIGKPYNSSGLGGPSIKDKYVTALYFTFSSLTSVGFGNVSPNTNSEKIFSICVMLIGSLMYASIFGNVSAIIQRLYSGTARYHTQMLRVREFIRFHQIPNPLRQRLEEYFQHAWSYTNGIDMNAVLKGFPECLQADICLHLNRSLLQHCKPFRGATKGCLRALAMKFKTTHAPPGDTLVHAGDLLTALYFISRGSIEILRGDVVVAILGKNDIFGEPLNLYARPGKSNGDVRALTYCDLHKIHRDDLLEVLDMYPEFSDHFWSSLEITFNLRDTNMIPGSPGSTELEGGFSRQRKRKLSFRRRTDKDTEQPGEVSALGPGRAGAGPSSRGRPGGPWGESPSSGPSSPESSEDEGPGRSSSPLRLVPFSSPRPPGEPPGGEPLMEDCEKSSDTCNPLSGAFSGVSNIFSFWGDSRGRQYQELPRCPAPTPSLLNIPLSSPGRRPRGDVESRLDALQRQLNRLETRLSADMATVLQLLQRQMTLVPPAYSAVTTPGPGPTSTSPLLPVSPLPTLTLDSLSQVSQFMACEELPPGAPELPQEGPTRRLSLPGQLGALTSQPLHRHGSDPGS
As for `COc1ccc(NC(=O)CSc2nnnn2C2CC2)cc1S(=O)(=O)N1CCOCC1`, the “hERG current change (%, negative = inhibition) at 1uM” value amounted to 10.6%. The result for `Cc1oc(-c2ccccc2)cc1C(=O)Nc1ccc2ccccc2c1` reads 10.9%; that for `O=C(c1ccc2c3c(cccc13)CC2)C1CCCN(Cc2ccc(OCCO)cc2)C1` (centres unmarked), 10.8%; that for `Nc1ccc(Oc2ccc(F)cc2)nc1`, 4.1%. Consider `O=C(O)c1ccccc1-c1ccccc1C(=O)Nc1ccc(F)cc1`, for which the “hERG current change (%, negative = inhibition) at 1uM” value worked out at 5.83%.

For `CCOC(=O)c1[nH]c(C)c(/C(O)=C2\C(=O)C(=O)N(CCN3CCOCC3)C2c2cccs2)c1C` (centres unmarked), the “hERG current change (%, negative = inhibition) at 1uM” value was 5.83%. Take `CC(=O)N1CCOc2ccc(S(=O)(=O)N3CCC(C(=O)Nc4ccccc4F)CC3)cc21`: the “hERG current change (%, negative = inhibition) at 1uM” value was determined as 12%. With `O=C(COc1ccc(Br)cc1Cl)NC(=S)N1CCc2ccccc21`, the “hERG current change (%, negative = inhibition) at 1uM” value is given as 8.41%. As for `Cc1c(CCC(=O)O)c(=O)oc2cc3occ(-c4ccc(Br)cc4)c3cc12`, the “hERG current change (%, negative = inhibition) at 1uM” value is recorded as 16.9%. The value for `O=C(NCc1ccc(F)cc1)C1CCCN(C(=O)Nc2ccc(F)cc2)C1` (centres unmarked) was 4.98%. Regarding `COCCn1nc2cc(C(=O)NCC34CC5CC(CC(C5)C3)C4)ccc2c1OC`, the “hERG current change (%, negative = inhibition) at 1uM” value came out at 5.25%.

As to `COc1ccc(/C=N/NS(C)(=O)=O)c(OC)c1`, the “hERG current change (%, negative = inhibition) at 1uM” value worked out at 9.05%.

On to `CC(C)(C)OC(=O)NCCc1nnc(SCc2c(Cl)cccc2Cl)o1`, for which the “hERG current change (%, negative = inhibition) at 1uM” value is recorded as 9.58%. For `CCc1cc2c(SCC(=O)N(CC)c3c(N)n(Cc4ccccc4)c(=O)[nH]c3=O)ncnc2s1`, the “hERG current change (%, negative = inhibition) at 1uM” value is reported as 7.35%. On to `COc1ccc(C(=O)NNC(=O)C(=O)/C=C(\O)c2ccc(C)cc2)cc1`, for which the “hERG current change (%, negative = inhibition) at 1uM” value was found to be 15.5%.

Regarding `COCC(C)NC(=O)c1ccc2c(c1)S(=O)(=O)c1ccccc1C2=O` (centres unmarked), the “hERG current change (%, negative = inhibition) at 1uM” value was 13.4%.

With `COc1ccc(OCC(=O)NCCNC(=O)c2ccccn2)cc1`, the “hERG current change (%, negative = inhibition) at 1uM” value is 4.21%. On to `Cn1c(=O)cc(OCCCC(=O)N2CCCCC2)c2ccccc21`, for which the “hERG current change (%, negative = inhibition) at 1uM” value is given as 12.4%.

As to `CCCOc1ccc(C(=O)NC(=S)Nc2nc3ccccc3s2)cc1`, the “hERG current change (%, negative = inhibition) at 1uM” value is reported as 2.37%. For the compound `O=S(=O)(c1ccccc1)C(/C=N\O)/C=C/c1ccccc1` (centres unmarked), the “hERG current change (%, negative = inhibition) at 1uM” value is 13.4%. The result for `COc1ccc(N2CCN(C(=S)Nc3cc(C)ccc3C)CC2)cc1` reads 10.1%; that for `Cc1nn(C(C)(C)C)c(NC(=O)c2ccccc2)c1C#N`, 7.9%.

Turning to `CC(C)(CO)CNC(=O)CCc1nnc(-c2ccc(-c3ccccc3)cc2)o1`, the “hERG current change (%, negative = inhibition) at 1uM” value was 15.4%. The value for `CNC(=S)N/N=C/c1c(C(=O)OC)cnn1-c1ccc(F)cc1F` was 8.46%.

For the compound `COc1ccc(-c2[nH]c3ccccc3c2SCCNC(=O)c2ccccc2)cc1`, the “hERG current change (%, negative = inhibition) at 1uM” value came out at 12.9%. Consider `O=C(N/N=C/c1ccc(N2CCOCC2)cc1)c1ccccc1OCCOc1ccccc1`, for which the “hERG current change (%, negative = inhibition) at 1uM” value is listed as -5.24%.

Regarding `COCCNC(=O)c1c[nH]c2ccc(S(=O)(=O)Nc3ccccc3F)cc2c1=O`, the “hERG current change (%, negative = inhibition) at 1uM” value stood at 9.25%.

Regarding `CN1CCN(C(CNC(=O)Nc2ccc(Cl)cc2)c2ccc(F)cc2)CC1` (centres unmarked), the “hERG current change (%, negative = inhibition) at 1uM” value is given as -16.4%. For `Cc1nc2sccn2c(=O)c1S(=O)(=O)NCc1ccccc1Cl`, the “hERG current change (%, negative = inhibition) at 1uM” value is given as 9.84%. The value for `COc1ccc(-n2cc(CNC3CCOCC3)c(-c3cccc(F)c3)n2)cc1` was -1.28%; that for `O=[N+]([O-])c1ccc(S(=O)(=O)NCCN2CCOCC2)cc1` was 12.6%; that for `N#Cc1ccc(NC(=O)c2sc3cc(C(F)(F)F)cnc3c2-c2cccs2)cc1` was 0.671%. `O=C(N/N=C/C=C/c1ccc([N+](=O)[O-])cc1)c1cccs1`: the “hERG current change (%, negative = inhibition) at 1uM” value was determined as 7.54%.

Turning to `CCOC(=O)Cn1c(=O)c2c(nc3n2CCCN3Cc2ccccc2)n(C)c1=O`, the “hERG current change (%, negative = inhibition) at 1uM” value is given as -14.1%. The value for `CS(=O)(=O)Nc1nc2n(n1)C(c1ccc(F)cc1)CC(c1ccccc1)N2` (centres unmarked) was 2.53%; that for `CCC(C)c1ccc(Nc2ncccc2C#N)cc1` (centres unmarked) was 8.1%; that for `CCN(CC(=O)Nc1ccccc1SC)Cc1nc2ccccc2c(=O)[nH]1` was 2.25%. The result for `CCCC(=O)Nc1ccc2c(c1)nc(CCNC(=O)c1ccco1)n2C` reads 12%; that for `COc1ccc(NC(=O)COC(=O)CCOc2ccccc2C)cc1Cl`, -2.04%. For `Nc1nnc(SCC(=O)c2ccc3c(c2)NC(=O)CO3)s1`, the “hERG current change (%, negative = inhibition) at 1uM” value was found to be 14.5%. On to `N#Cc1cc(C(=O)Cc2ccccc2)c[nH]1`, for which the “hERG current change (%, negative = inhibition) at 1uM” value came to 12.7%.

Take `CCN1C(=O)/C(=C\N2CCOCC2)SC1=S`: the “hERG current change (%, negative = inhibition) at 1uM” value was determined as 8.51%. Take `Cc1cccn2c(=O)c3cc(C(=O)NC4CCS(=O)(=O)C4)sc3nc12` (centres unmarked): the “hERG current change (%, negative = inhibition) at 1uM” value is listed as 12.7%. The value for `COc1ccc(S(=O)(=O)N(C)CC(=O)NCCN2CCOCC2)cc1` was 12.1%; that for `Cc1cc(C)n2nc(SCc3nnc(SCCCCl)o3)nc2n1` was 5.79%; that for `COC(=O)c1sc(NC(=O)c2ccncc2)nc1C` was 20.5%. Take `O=C(Nc1cc(C(F)(F)F)ccc1-n1cncn1)c1ccc(-c2ccccc2)cc1`: the “hERG current change (%, negative = inhibition) at 1uM” value worked out at 8.67%.

Consider `CC(C)(C)c1ccc(CN(Cc2ccccc2)C(c2ccccn2)c2nnnn2C(C)(C)C)cc1` (centres unmarked), for which the “hERG current change (%, negative = inhibition) at 1uM” value was 6.17%.

As to `CC(C)(C)C1=NN=C2c3ccccc3C(=O)C21` (centres unmarked), the “hERG current change (%, negative = inhibition) at 1uM” value came out at 10.4%. With `CNC(=O)c1[nH]cnc1C(=O)NCC(=O)OCc1ccccc1`, the “hERG current change (%, negative = inhibition) at 1uM” value was 14.1%. Turning to `COc1ccc(C2CC(c3ccccc3)=NN2C(=O)COC(=O)c2cccc(S(=O)(=O)N(C)C)c2)cc1` (centres unmarked), the “hERG current change (%, negative = inhibition) at 1uM” value is -2.73%. The value for `CCCn1c(SC2C(=O)CC(C)(C)CC2=O)nc2c1c(=O)n(C)c(=O)n2C` was 15.4%; that for `O=C(CCCCCNC(=O)c1ccccc1)N=Nc1c(O)[nH]c2c(Br)cc(Br)cc12` was 5.16%; that for `CC1(C(=O)NNC(=S)NCc2ccco2)CC1(Cl)Cl` (centres unmarked) was 17.5%. The value for `CCOc1ccc(NC(=O)CSc2nc3ccccc3c(=O)n2CCCC(=O)NCC2CCCO2)cc1` (centres unmarked) was 15.5%. The value for `CC1CCCC(NC(=O)CN(C)CC(=O)Nc2cccc(F)c2)C1C` (centres unmarked) was 11.9%.
